The supplement of paper PMC12217912
This is one part of the list. Sequences were assembled here from the parent chain. Inactive controls read about 0.05.

B1: TEV protease; numbered along this chain (parent)
chain: MGESLFKGPRDYNPISSSICHLTNESDGHTTSLYGIGFGPFIITNKHLFRRNNGTLVVQSLHGVFKVKDTTTLQQHLVDGRDMIIIRMPKDFPPFPQKLKFREPQREERICLVTTNFQTKSMSSMVSDTSCTFPSGDGIFWKHWIQTKDGQCGSPLVSTRDGFIVGIHSASNFTNTNNYFTSVPKNFMELLTNQEAQQWVSGWRLNADSVLWGGHKVFMVKPEEPFQPVKEATQL

Variants of: B1
Test: raw area under fraction-flipped curve 0-4 h after induction (AUC4h, not background-subtracted), DNA-recorder readout of cleavage of the substrate (dimensionless); higher = more cleavage of the substrate by the protease variant
Settings: temperature: 34 °C; time window: 0-4 h after rhamnose induction
Experimental: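 In vivo DNA recorder in E. coli TOP10(DE3) ΔrhaA at 34 °C. Each TEVp single-site mutant (parent TEVp 0) is paired with a single-site variant of the 7-mer TEVs (canonical ENLYFQ|S). The substrate sits between flexible linkers in a Bxb1-sfGFP-TEVs-SsrA fusion, so cleavage stabilises Bxb1 and speeds flipping of a recombination array, read by NGS. The value is the raw area under the fraction-flipped curve over 0-4 h after rhamnose induction (AUC4h), with ≥20 reads per time point. It is not background-subtracted; inactive controls average about 0.047.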
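Also: Bxb1 expression induced with 0.2% (w/v) L-rhamnose at OD600 near 0.5, cultures sampled hourly, flipped fraction per protease–substrate barcode pair counted by paired-end Illumina sequencing.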

Variant | area with substrate ENLYFQC | area with substrate ENLYFQG | area with substrate ENLYFQH | area with substrate ENLYFQI | area with substrate ENLYFQK | area with substrate ENLYFQL | area with substrate ENLYFQM | area with substrate ENLYFQN | area with substrate ENLYFQP | area with substrate ENLYFQS | area with substrate ENLYFQV | area with substrate ENLYFQW | area with substrate ENLYFQY | area with substrate ENLYFQR | area with substrate ENLYFQF | area with substrate ENLYFQT | area with substrate ENLYFQQ | area with substrate ENLYFQE | area with substrate ENLYFQD
MGESLFKGPRDYNPISSSICHLTNESDGHTTSLYGIGFGPFIITNKHLFRRNNGTLVVQSLHGVFKVKDTTTLQQHLVDGRDMIIIRMPKDFPPFPQKLKFREPQREERICLVTTNFQTKSMSSMVSDTSCTFPSGDGIFWKHWIQTKDGQCGSPLVSTRDGFIVGIHSASNFTNTNNYFTSSPKNFMELLTNQEAQQWVSGWRLNADSVLWGGHKVFMVKPEEPFQPVKEATQL [V183S] | 0.107 | 0.0868 | 0.0688 | 0.0464 | 0.0569 | 0.0507 | 0.0726 | 0.0769 | 0.0392 | 0.0867 | 0.0642 | 0.0304 | 0.0781 |  |  |  |  |  | 
MGESLFKGPRDYNPISSSICHLTNESDGHTTSLYGIGFGPFIITNKHLFRRNNGTLVVQSLHGVFKVKDTTTLQQHLVDGRDMIIIRMPKDFPPFPQKLKFREPQREERICLVTTNFQTKSMSSMVSDTSCTFPSGDGIFWKHWIQTKDGQCGSPLVSTRDGFIVGIHSASNFTNTNNYQTSVPKNFMELLTNQEAQQWVSGWRLNADSVLWGGHKVFMVKPEEPFQPVKEATQL [F180Q] | 0.0283 |  |  |  |  | 0.0512 |  | 0.0347 |  | 0.0597 |  |  |  | 0.0617 |  |  |  |  | 
MGESLFKGPRDYNPISSSICHLTNESDGHTTSLYGIGFGPFIITNKHLFRRNNGTLVVQSLHGVFKVKDTTTLQQHLVDGRDMIIIRMPKDFPPFPQKLKFREPQREERICLVTTNFQTKSMSSMVSDTSCTFPSGDGIFWKHWIQTKDGQCGSPLVSTRDGFIVGIHSASNFTNTNNYFTSVPQNFMELLTNQEAQQWVSGWRLNADSVLWGGHKVFMVKPEEPFQPVKEATQL [K185Q] | 0.102 | 0.0904 | 0.0861 | 0.0656 | 0.0672 |  | 0.0865 | 0.0825 | 0.0597 | 0.104 | 0.0504 | 0.0654 |  | 0.0382 | 0.0837 | 0.0614 |  |  | 
MGESLFKGPRDYNPISSSICHLTNESDGHTTSLYGIGFGPFIITNKHLFRRNNGTLVVQSLHGVFKVKDTTTLQQHLVDGRDMIIIRMPKDFPPFPQKLKFREPQREERICLVTTNFQTKSMSSMVSDTSCTFPSGDGIFWKHWIQTKDGQCGSPLVSTRDGFIVGIHSASNFTNTNNVFTSVPKNFMELLTNQEAQQWVSGWRLNADSVLWGGHKVFMVKPEEPFQPVKEATQL [Y179V] | 0.0633 | 0.0628 | 0.0629 |  |  | 0.0651 | 0.0596 | 0.0872 |  | 0.0634 |  |  | 0.0597 | 0.063 |  |  | 0.0482 |  | 
MGESLFKGPRDYNPISSSICHLTNESDGHTTSLYGIGFGPFIITNKHLFRRNNGTLVVQSLHGVFKVKDTTTLQQHLVDGRDMIIIRMPKDFPPFPQKLKFREPQREERICLVTTNFQTKSMSSMVSDTSCTFPSGDGIFWKHWIQTKDGQCGSPLVSTRDGFIVGIHSASNFTNTNNNFTSVPKNFMELLTNQEAQQWVSGWRLNADSVLWGGHKVFMVKPEEPFQPVKEATQL [Y179N] | 0.0788 |  |  |  |  | 0.0656 |  |  |  | 0.0576 |  | 0.0474 |  |  |  | 0.0531 |  | 0.0495 | 
MGESLFKGPRDYNPISSSICHLTNESDGHTTSLYGIGFGPFIITNKHLFRRNNGTLVVQSLHGVFKVKDTTTLQQHLVDGRDMIIIRMPKDFPPFPQKLKFREPQREERICLVTTNFQTKSMSSMVSDTSCTFPSGDGIFWKHWIQTKDGQCGSPLVSTRDGFIVGIHSASNFTNTNNYFTSVPKNFMECLTNQEAQQWVSGWRLNADSVLWGGHKVFMVKPEEPFQPVKEATQL [L190C] | 0.11 |  |  |  | 0.0615 | 0.068 | 0.0939 |  |  | 0.105 | 0.0668 |  | 0.076 |  | 0.104 | 0.0574 |  | 0.0589 | 
MGESLFKGPRDYNPISSSICHLTNESDGHTTSLYGIGFGPFIITNKHLFRRNNGTLVVQSLHGVFKVKDTTTLQQHLVDGRDMIIIRMPKDFPPFPQKLKFREPQREERICLVTTNFQTKSMSSMVSDTSCTFPSGDGIFWKHWIQTKDGQCGSPLVSTRDGFIVGIHSASNFTNTNNYFTSVPKNFMEQLTNQEAQQWVSGWRLNADSVLWGGHKVFMVKPEEPFQPVKEATQL [L190Q] | 0.0941 | 0.0588 |  | 0.0687 | 0.0598 | 0.109 | 0.0627 |  | 0.0543 | 0.0908 |  | 0.0629 |  | 0.0646 |  |  |  |  | 0.056
MGESLFKGPRDYNPISSSICHLTNESDGHTTSLYGIGFGPFIITNKHLFRRNNGTLVVQSLHGVFKVKDTTTLQQHLVDGRDMIIIRMPKDFPPFPQKLKFREPQREERICLVTTNFQTKSMSSMVSDTSCTFPSGDGIFWKHWIQTKDGQCGSPLVSTRDGFIVGIHSASNFTNTNNYFTSVPKNFMESLTNQEAQQWVSGWRLNADSVLWGGHKVFMVKPEEPFQPVKEATQL [L190S] | 0.0987 | 0.109 | 0.0526 | 0.0464 |  |  |  | 0.0716 |  | 0.0897 | 0.0749 |  |  | 0.0111 | 0.0964 | 0.0796 |  |  | 0.0571
MGESLFKGPRDYNPISSSICHLTNESDGHTTSLYGIGFGPFIITNKHLFRRNNGTLVVQSLHGVFKVKDTTTLQQHLVDGRDMIIIRMPKDFPPFPQKLKFREPQREERICLVTTNFQTKSMSSMVSDTSCTFPSGDGIFWKHWIQTKDGQCGSPLVSTRDGFIVGIHSASNFTNTNNYFTSVPKIFMELLTNQEAQQWVSGWRLNADSVLWGGHKVFMVKPEEPFQPVKEATQL [N186I] | 0.094 | 0.0644 | 0.069 |  |  | 0.0334 |  |  | 0.057 | 0.0786 |  |  |  | 0.0562 |  |  |  |  | 0.0728
MGESLFKGPRDYNPISSSICHLTNESDGHTTSLYGIGFGPFIITNKHLFRRNNGTLVVQSLHGVFKVKDTTTLQQHLVDGRDMIIIRMPKDFPPFPQKLKFREPQREERICLVTTNFQTKSMSSMVSDTSCTFPSGDGIFWKHWIQTKDGQCGSPLVSTRDGFIVGIHSASNFTNTKNYFTSVPKNFMELLTNQEAQQWVSGWRLNADSVLWGGHKVFMVKPEEPFQPVKEATQL [N177K] | 0.134 | 0.116 |  |  | 0.045 | 0.0733 |  | 0.0656 |  | 0.113 | 0.0493 | 0.0625 |  |  |  | 0.0709 |  |  | 
